What was measured:
[1] = biological target: T1, human OX40 on cells (human, UniProt P43489 29-277); assay: flow cytometry on human T cells activated with anti-CD3/anti-CD28 beads, CD4+ gate; pab1949-1 detected with anti-kappa IgG PE
T1 construct: also called CD134; TNFRSF4
T1 sequence: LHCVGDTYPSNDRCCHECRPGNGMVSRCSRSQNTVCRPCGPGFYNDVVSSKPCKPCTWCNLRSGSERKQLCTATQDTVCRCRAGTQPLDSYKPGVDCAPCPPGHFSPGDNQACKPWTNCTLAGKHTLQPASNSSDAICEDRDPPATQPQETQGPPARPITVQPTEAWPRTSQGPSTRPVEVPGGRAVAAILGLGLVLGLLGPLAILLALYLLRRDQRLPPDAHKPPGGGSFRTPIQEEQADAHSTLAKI

[2] = biological target: T2, W58A; assay: flow cytometry on 1624-5 cells expressing the human OX40 alanine mutant; pab1949-1 at 2 and 0.5 µg/ml
T2 construct: also called human OX40 alanine mutant W58A on 1624-5 cells
T2 receptor chain: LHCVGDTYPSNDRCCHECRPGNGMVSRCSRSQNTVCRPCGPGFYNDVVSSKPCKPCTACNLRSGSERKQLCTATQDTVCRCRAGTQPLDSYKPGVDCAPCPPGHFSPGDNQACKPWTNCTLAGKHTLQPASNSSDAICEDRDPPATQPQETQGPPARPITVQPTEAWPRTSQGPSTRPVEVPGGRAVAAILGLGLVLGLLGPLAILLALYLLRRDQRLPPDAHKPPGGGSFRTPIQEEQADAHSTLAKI
Description: (§1) This anti-OX40 antibody non-reactive cell population was subjected to a final, single-cell sorting step. […] The polyclonal anti-OX40 antibody (AF3388, R&D systems) conjugated with APC was diluted at 1:2000. Fc receptor block (1:200; BD Cat no. 553142) was added, and the samples were incubated for 20 minutes at 4° C. […] The cells were then washed and acquired using a flow cytometer (BD Biosciences).

[3] = biological target: T3, P99A; assay: as above
T3 construct: also called human OX40 alanine mutant P99A on 1624-5 cells
T3 receptor chain: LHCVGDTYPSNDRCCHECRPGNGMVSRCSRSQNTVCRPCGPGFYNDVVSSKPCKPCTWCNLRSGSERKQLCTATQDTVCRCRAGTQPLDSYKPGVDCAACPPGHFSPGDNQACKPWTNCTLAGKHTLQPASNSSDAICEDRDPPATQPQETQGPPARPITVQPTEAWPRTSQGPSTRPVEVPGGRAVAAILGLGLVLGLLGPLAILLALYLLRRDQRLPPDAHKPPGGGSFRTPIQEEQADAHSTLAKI
Description: as §1

[4] = biological target: T4, R80A; assay: as above
T4 construct: also called human OX40 alanine mutant R80A on 1624-5 cells
T4 receptor chain: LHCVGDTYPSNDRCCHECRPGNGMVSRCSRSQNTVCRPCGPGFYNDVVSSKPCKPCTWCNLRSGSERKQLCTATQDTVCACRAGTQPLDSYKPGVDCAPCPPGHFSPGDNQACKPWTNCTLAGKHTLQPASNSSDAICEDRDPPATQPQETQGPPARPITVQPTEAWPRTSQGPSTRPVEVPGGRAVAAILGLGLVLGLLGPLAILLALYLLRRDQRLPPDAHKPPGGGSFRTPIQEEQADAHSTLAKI
Description: as §1

[5] = biological target: T5, N60A; assay: as above
T5 construct: also called human OX40 alanine mutant N60A on 1624-5 cells
T5 receptor chain: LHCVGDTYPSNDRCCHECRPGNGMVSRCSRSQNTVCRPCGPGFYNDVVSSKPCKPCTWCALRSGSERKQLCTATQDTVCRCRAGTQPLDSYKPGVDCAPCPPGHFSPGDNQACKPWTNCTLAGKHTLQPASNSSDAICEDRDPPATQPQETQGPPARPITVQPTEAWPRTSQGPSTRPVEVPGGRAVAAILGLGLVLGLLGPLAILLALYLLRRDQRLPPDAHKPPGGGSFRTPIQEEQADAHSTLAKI
Description: as §1

[6] = biological target: T6, R62A; assay: as above
T6 construct: also called human OX40 alanine mutant R62A on 1624-5 cells
T6 receptor chain: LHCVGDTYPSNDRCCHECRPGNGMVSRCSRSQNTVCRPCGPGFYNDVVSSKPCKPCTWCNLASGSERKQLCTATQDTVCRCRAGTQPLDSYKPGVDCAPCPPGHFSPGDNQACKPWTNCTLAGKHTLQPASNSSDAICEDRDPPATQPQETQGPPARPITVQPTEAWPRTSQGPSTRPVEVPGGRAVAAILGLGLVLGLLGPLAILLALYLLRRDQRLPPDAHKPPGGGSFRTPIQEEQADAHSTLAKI
Description: as §1

[7] = biological target: T7, P115A; assay: as above
T7 construct: also called human OX40 alanine mutant P115A on 1624-5 cells
T7 receptor chain: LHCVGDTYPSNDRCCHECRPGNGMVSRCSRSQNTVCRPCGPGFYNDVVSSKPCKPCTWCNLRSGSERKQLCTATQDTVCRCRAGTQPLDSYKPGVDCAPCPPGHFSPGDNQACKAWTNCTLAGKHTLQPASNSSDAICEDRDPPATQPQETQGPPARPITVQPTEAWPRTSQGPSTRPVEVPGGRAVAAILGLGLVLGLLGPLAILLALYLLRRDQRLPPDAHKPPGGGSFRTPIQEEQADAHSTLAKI
Description: as §1

[8] = biological target: T8, P93A; assay: as above
T8 construct: also called human OX40 alanine mutant P93A on 1624-5 cells
T8 receptor chain: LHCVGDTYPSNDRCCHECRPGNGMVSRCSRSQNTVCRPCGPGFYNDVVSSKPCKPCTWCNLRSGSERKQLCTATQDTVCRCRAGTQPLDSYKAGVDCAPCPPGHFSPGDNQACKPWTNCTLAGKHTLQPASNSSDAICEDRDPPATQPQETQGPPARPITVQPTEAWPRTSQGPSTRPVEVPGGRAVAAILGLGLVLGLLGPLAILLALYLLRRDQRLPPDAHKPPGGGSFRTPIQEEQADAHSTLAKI
Description: as §1

[9] = biological target: T9, L88A; assay: as above
T9 construct: also called human OX40 alanine mutant L88A on 1624-5 cells
T9 receptor chain: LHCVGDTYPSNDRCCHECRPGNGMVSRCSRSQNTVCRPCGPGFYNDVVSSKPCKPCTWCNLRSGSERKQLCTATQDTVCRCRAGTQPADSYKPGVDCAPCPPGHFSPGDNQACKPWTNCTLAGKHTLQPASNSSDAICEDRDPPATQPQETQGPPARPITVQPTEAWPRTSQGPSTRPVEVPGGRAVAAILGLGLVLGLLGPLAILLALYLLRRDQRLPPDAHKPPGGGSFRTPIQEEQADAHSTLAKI
Description: as §1

[10] = biological target: T10, recombinant human OX40-Fc (R&D systems, 3388-OX) (human, UniProt P43489 29-216); assay: Bio-layer interferometry (Octet), OX40-Fc on the sensor, antibody 50 to 0.78 nM in solution
T10 construct: Bought protein; also called recombinant human OX40 antigen (OX40-Fc, R&D); not shown: Fc portion of the bought fusion protein
T10 sequence: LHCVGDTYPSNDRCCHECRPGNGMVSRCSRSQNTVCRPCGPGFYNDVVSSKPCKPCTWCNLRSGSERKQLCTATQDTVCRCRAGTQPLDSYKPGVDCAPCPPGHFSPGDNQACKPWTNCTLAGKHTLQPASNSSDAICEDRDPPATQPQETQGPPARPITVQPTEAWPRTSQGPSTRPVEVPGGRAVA

EC50 (read off the curve) [1]: ~0.1 µg/mL | binding result [2]: no binding (tested: 2 µg/ml) | binding result [3]: no binding (tested: 2 µg/ml) | binding result [4]: no binding (tested: 2 µg/ml) | binding result [5]: no binding (tested: 2 µg/ml) | binding result [6]: no binding (tested: 2 µg/ml) | binding result [7]: no binding (tested: 2 µg/ml) | binding result [8]: no binding (tested: 2 µg/ml) | binding result [9]: no binding (tested: 2 µg/ml) | Kd [10]: 0.11 nM | koff [10]: 0.000126 s⁻¹ | kon [10]: 1.09e+06 M⁻¹ s⁻¹
B1: pab1949-1 (antibody, human IgG1, kappa)
heavy: EVQLVESGGGLVQPGGSLKLSCAASGFTFSGSAMHWVRQASGKGLEWVGRIRSKANSYATAYAASVKGRFTISRDDSKNTAYLQMNSLKTEDTAVYYCTSGIYDSSGYDYWGQGTLVTVSSASTKGPSVFPLAPSSKSTSGGTAALGCLVKDYFPEPVTVSWNSGALTSGVHTFPAVLQSSGLYSLSSVVTVPSSSLGTQTYICNVNHKPSNTKVDKRV[human IgG1 Fc omitted]
light: not shown
notes: Human IgG1 antibody
